Our source for the binding signal values is PMC9911399, “Two distinct binding modes provide the RNA-binding protein RbFox with extraordinary sequence specificity”.

First the molecules themselves.
T1: RBFOX1 RRM RbFoxmut (Fox-RRM*) (Homo sapiens, UniProt Q9NWB1 109-208, R118D;E147R;N151S;E152T)
T1 sequence: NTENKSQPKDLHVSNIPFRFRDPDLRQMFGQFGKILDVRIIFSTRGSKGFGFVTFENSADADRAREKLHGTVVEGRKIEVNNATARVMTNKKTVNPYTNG

B1: GCCAUUG (DNA:RNA)
RNA: GGGAGACCGGAAUUCAGAUUGUCCGCCAUUGUUAAAUCCCGUCGUAGCCACCA
DNA 1: CAATCTGAATTCCGGTCTCCC
DNA 2: TGGTGGCTACGACGGGATT
B2: GUCGCAC (DNA:RNA)
RNA: B1 RNA with C26U, A28G, U29C, U30A, G31C
DNA 1: CAATCTGAATTCCGGTCTCCC
DNA 2: TGGTGGCTACGACGGGATT
B3: CGCGGAG (DNA:RNA)
RNA: B1 RNA with G25C, C26G, A28G, U29G, U30A
DNA 1: CAATCTGAATTCCGGTCTCCC
DNA 2: TGGTGGCTACGACGGGATT
B4: GCUGGGA (DNA:RNA)
RNA: B1 RNA with C27U, A28G, U29G, U30G, G31A
DNA 1: CAATCTGAATTCCGGTCTCCC
DNA 2: TGGTGGCTACGACGGGATT
B5: AGAGCAG (DNA:RNA)
RNA: B1 RNA with G25A, C26G, C27A, A28G, U29C, U30A
DNA 1: CAATCTGAATTCCGGTCTCCC
DNA 2: TGGTGGCTACGACGGGATT
B6: AUUUCUG (DNA:RNA)
RNA: B1 RNA with G25A, C26U, C27U, A28U, U29C
DNA 1: CAATCTGAATTCCGGTCTCCC
DNA 2: TGGTGGCTACGACGGGATT
B7: GACGUAA (DNA:RNA)
RNA: B1 RNA with C26A, A28G, U30A, G31A
DNA 1: CAATCTGAATTCCGGTCTCCC
DNA 2: TGGTGGCTACGACGGGATT
B8: CACUAGG (DNA:RNA)
RNA: B1 RNA with G25C, C26A, A28U, U29A, U30G
DNA 1: CAATCTGAATTCCGGTCTCCC
DNA 2: TGGTGGCTACGACGGGATT
B9: CGGUUUC (DNA:RNA)
RNA: B1 RNA with G25C, C26G, C27G, A28U, G31C
DNA 1: CAATCTGAATTCCGGTCTCCC
DNA 2: TGGTGGCTACGACGGGATT
B10: AUAAUGU (DNA:RNA)
RNA: B1 RNA with G25A, C26U, C27A, U30G, G31U
DNA 1: CAATCTGAATTCCGGTCTCCC
DNA 2: TGGTGGCTACGACGGGATT
B11: UGGUAAA (DNA:RNA)
RNA: GGGAGACCGGAAUUCAGAUUGUCCUGGUAAAUUAAAUCCCGUCGUAGCCACCA
DNA 1: CAATCTGAATTCCGGTCTCCC
DNA 2: TGGTGGCTACGACGGGATT
B12: AGAAAGC (DNA:RNA)
RNA: B11 RNA with U25A, G27A, U28A, A30G, A31C
DNA 1: CAATCTGAATTCCGGTCTCCC
DNA 2: TGGTGGCTACGACGGGATT
B13: CACCGUU (DNA:RNA)
RNA: B1 RNA with G25C, C26A, A28C, U29G, G31U
DNA 1: CAATCTGAATTCCGGTCTCCC
DNA 2: TGGTGGCTACGACGGGATT
B14: CUCUGGC (DNA:RNA)
RNA: B1 RNA with G25C, C26U, A28U, U29G, U30G, G31C
DNA 1: CAATCTGAATTCCGGTCTCCC
DNA 2: TGGTGGCTACGACGGGATT
B15: GGAUGUA (DNA:RNA)
RNA: B11 RNA with U25G, G27A, A29G, A30U
DNA 1: CAATCTGAATTCCGGTCTCCC
DNA 2: TGGTGGCTACGACGGGATT
B16: AGGCAAC (DNA:RNA)
RNA: B11 RNA with U25A, U28C, A31C
DNA 1: CAATCTGAATTCCGGTCTCCC
DNA 2: TGGTGGCTACGACGGGATT
B17: UAACGUC (DNA:RNA)
RNA: B1 RNA with G25U, C26A, C27A, A28C, U29G, G31C
DNA 1: CAATCTGAATTCCGGTCTCCC
DNA 2: TGGTGGCTACGACGGGATT
B18: CGAUGUC (DNA:RNA)
RNA: B11 RNA with U25C, G27A, A29G, A30U, A31C
DNA 1: CAATCTGAATTCCGGTCTCCC
DNA 2: TGGTGGCTACGACGGGATT
B19: ACGCUUC (DNA:RNA)
RNA: B1 RNA with G25A, C27G, A28C, G31C
DNA 1: CAATCTGAATTCCGGTCTCCC
DNA 2: TGGTGGCTACGACGGGATT
B20: CAUGGCA (DNA:RNA)
RNA: B11 RNA with U25C, G26A, G27U, U28G, A29G, A30C
DNA 1: CAATCTGAATTCCGGTCTCCC
DNA 2: TGGTGGCTACGACGGGATT

Numbering of substitutions follows the chain as printed; changes in the protein carry UniProt numbers. This is one part of the list.

The target in the test is T1, RBFOX1 RRM RbFoxmut (Fox-RRM*). Kind of test: EMSA; HiTS-Eq, 1 nM pool, 10 min; buffer printed only for the single-RNA assays: 10 mM Tris pH 7.5, 150 mM NaCl, 3.4 mM EDTA, 0.001% NP-40, 30 C. The note with it: tags: His6 N-terminal (pET28a); label: 5' 32P. In outline:
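Purified wild-type or mutant RbFox RRM at increasing concentrations was equilibrated with 1 nM of 5′-radiolabelled RNA carrying 7 randomized nucleotides for 10 min in 50 µL. Unbound RNA was separated by 8% native PAGE and sequenced. Relative association constants came from read-count changes of each RNA species compared with the control reaction, normalised to the cognate motif.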
(In general: Mobility shift assays separate free from complexed probe on a gel.)
On to B1, for which the binding signal was 0.115 KA relative to UGCAUGU.
With B2 the figure was 0.0943 KA relative to UGCAUGU.
On to B3, for which the binding signal is 0.123 KA relative to UGCAUGU.
Regarding B4, the binding signal was 0.0829 KA relative to UGCAUGU.
In the case of B5, the binding signal was 0.0918 KA relative to UGCAUGU.
With B6 the figure was 0.0727 KA relative to UGCAUGU; with B7, 0.125 KA relative to UGCAUGU; with B8, 0.0811 KA relative to UGCAUGU.
In the case of B9 it was 0.15 KA relative to UGCAUGU; in that of B10, 0.135 KA relative to UGCAUGU; in that of B11, 0.0843 KA relative to UGCAUGU.
As for B12, the binding signal was 0.108 KA relative to UGCAUGU.
As to B13, the binding signal was 0.0894 KA relative to UGCAUGU.
In the case of B14 it was 0.115 KA relative to UGCAUGU.
On to B15, for which the binding signal is 0.285 KA relative to UGCAUGU.
B16: the binding signal was 0.0666 KA relative to UGCAUGU.
In the case of B17, the binding signal was 0.0579 KA relative to UGCAUGU.
In the case of B18 it was 0.178 KA relative to UGCAUGU; in that of B19, 0.0771 KA relative to UGCAUGU.
In the case of B20 it was 0.141 KA relative to UGCAUGU.
